About 230 (0.21%) of roughly 110,000 compounds showed an effect of 50% or more. The list shows a part of the results.
Target: DPAP1 (Plasmodium falciparum, UniProt Q8IIJ9)
Assay: primary screen, percent inhibition; read by cleavage of a fluorogenic dipeptide substrate; higher = more effect of the substance
Set-up: species or system P. falciparum D10 trophozoite lysates; single well
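Further: 30 min substrate incubation versus DMSO and 10 µM JCP410 controls.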

Chain of DPAP1 (Q8IIJ9 whole entry, looked up): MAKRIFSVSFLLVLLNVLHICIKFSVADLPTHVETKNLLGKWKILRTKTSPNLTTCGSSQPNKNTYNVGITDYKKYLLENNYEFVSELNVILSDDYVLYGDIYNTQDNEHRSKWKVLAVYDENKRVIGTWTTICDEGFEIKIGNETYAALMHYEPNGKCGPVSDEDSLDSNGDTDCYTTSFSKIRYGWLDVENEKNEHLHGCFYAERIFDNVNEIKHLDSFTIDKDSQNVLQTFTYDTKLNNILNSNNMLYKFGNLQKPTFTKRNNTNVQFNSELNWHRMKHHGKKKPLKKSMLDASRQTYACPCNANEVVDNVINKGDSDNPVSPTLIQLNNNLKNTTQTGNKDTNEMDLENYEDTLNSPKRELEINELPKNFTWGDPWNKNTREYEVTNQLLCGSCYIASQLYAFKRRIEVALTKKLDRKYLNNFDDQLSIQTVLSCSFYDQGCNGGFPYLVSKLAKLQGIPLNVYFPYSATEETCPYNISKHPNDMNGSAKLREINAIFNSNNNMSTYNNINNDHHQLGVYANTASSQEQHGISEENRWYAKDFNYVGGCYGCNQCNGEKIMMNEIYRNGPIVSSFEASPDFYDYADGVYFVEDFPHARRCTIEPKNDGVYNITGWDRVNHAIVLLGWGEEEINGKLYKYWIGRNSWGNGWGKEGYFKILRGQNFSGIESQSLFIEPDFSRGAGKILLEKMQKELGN

Compared with `CCOC(=O)C1=C(C)NC(=O)NC1c1ccc(C(C)C)cc1` (stereo not shown), `CCOC(=O)C1=C(CN2CCN(C3CCCCC3)CC2)NC(=O)NC1c1ccc(OC)cc1` (stereo not shown) is higher in “% Inhibition @ 10 uM” value: -1.97% for the first, 5.44% for the second.

First: CC(=O)/N=c1/n(C)c2ccccc2n1CCOc1ccccc1
Second: CC(=O)c1ccc(NC(=O)COc2ccccc2)cc1
The “% Inhibition @ 10 uM” value of the first is lower: -5.29% for the first, 7.66% for the second.

Compared with `CCCOc1ccc(CNC(=O)Cn2ncn3c(cc4sc(C)cc43)c2=O)cc1`, `CCC(C)NC(=O)Cn1nc(C)c2sc3ccccc3c2c1=O` (stereo not shown) is higher in “% Inhibition @ 10 uM” value: -5.32% for the first, -3.93% for the second.

Compared with `O=C1C(=O)N(C(=O)NC2CCCCC2)c2ccc(Br)cc21`, `Cc1ccc(-n2ncc(C(=O)NC3CCCC3)c2C2CCNCC2)cc1C` is higher in “% Inhibition @ 10 uM” value: 1.03% for the first, 2.28% for the second.

Going from `CC(=O)C1=C(C)N(C)C2=C(C(=O)c3ccccc32)C1c1ccccc1F` (stereo not shown) to `CCOC(=O)C1=C(CSCc2ccccc2)NC(=O)NC1c1ccc2c(c1)OCO2` (stereo not shown), the “% Inhibition @ 10 uM” value rises from -3.41% to -0.403%.

Compared with `COc1ccc(-c2ccc(=O)n(CC(=O)NCCc3ccc(S(N)(=O)=O)cc3)n2)cc1`, `COc1ccc(C2=NOC(C(=O)Nc3cc(C)nn3-c3ccccc3)C2)cc1` (stereo not shown) is lower in “% Inhibition @ 10 uM” value: 2.35% for the first, -3.45% for the second.

Compared with `CCN(CC)CCCNC(=O)c1nn2c(c1Cl)NC(c1ccc(C)cc1)CC2C(F)(F)F` (stereo not shown), `Cc1ccc2c(Cl)c(C(=O)NCCCn3ccnc3)sc2c1` is higher in “% Inhibition @ 10 uM” value: 4.86% for the first, 5.54% for the second.

Compared with `CC1(C)CC2=Nc3cc(Cl)ccc3SC2=C(O)C1`, `Cn1c(SCc2cccc(Cl)c2)nc2ccccc2c1=O` is higher in “% Inhibition @ 10 uM” value: -1.97% for the first, 7.02% for the second.

First: O=c1[nH]c(=O)c2c(-c3ccccc3)csc2[nH]1
Second: CC(C(=O)O)c1c(C(=O)O)[nH]c2ccccc12 (stereo not shown)
The “% Inhibition @ 10 uM” value of the first is lower: -7.99% for the first, 1.91% for the second.

Compared with `COC(=O)C1=NNC2C(=O)N(Cc3ccccc3)C(=O)C12` (stereo not shown), `O=C(NCc1ccccc1)c1cccc(Br)c1` is lower in “% Inhibition @ 10 uM” value: -0.13% for the first, -3.55% for the second.

Compared with `O=C(O)c1ccccc1C(=O)OCCCC(F)(F)C(F)(F)F`, `O=C(COc1ccccc1)N1CCN(C(=O)c2cccc(F)c2)CC1` is higher in “% Inhibition @ 10 uM” value: -5.08% for the first, -2.87% for the second.

First: C1CCCN(c2nc(N3CCCCCC3)nc(N3CCCCCC3)n2)CC1
Second: O=C(c1sc2cc([N+](=O)[O-])ccc2c1Cl)N1CCCCC1
The “% Inhibition @ 10 uM” value of the first is higher: -1.74% for the first, -1.76% for the second.

First: Cc1nc(N2C(=O)c3oc4ccccc4c(=O)c3C2c2ccc(Cl)cc2)sc1C (stereo not shown)
Second: CCC(=O)c1c(OCc2ccc(Cl)cc2)ccc2c(C)cc(=O)oc12
The “% Inhibition @ 10 uM” value of the first is higher: 3.12% for the first, -0.45% for the second.

Going from `CC(C)C[C@@H](C(=O)NCC#N)c1cccc(-c2ccc(C3(C)CCNCC3)cc2)c1` to `CC(C)c1ccc(NC(=O)Nc2ccc(Cl)c(Cl)c2)cc1`, the “% Inhibition @ 10 uM” value falls from 1.7% to -2.12%.

Compared with `O=C(Nc1cccc(Cl)c1)c1cnccn1`, `C=CCOc1ccc(Br)cc1CNc1cccc(C(=O)O)c1` is higher in “% Inhibition @ 10 uM” value: 1.83% for the first, 3.49% for the second.

Going from `O=C(NCC1CCCO1)c1cc(-c2ccc(Cl)s2)nc2ccccc12` (stereo not shown) to `COCCNC(=O)c1cc(-c2ccncc2)nc2ccc(S(=O)(=O)N3CCC(C)CC3)cc12`, the “% Inhibition @ 10 uM” value rises from 2.44% to 3.93%.

Going from `CC(C)=CCCCCCCN1CCN(c2ccc(C)cc2)CC1` to `CN1CCCN(Cc2ccc(F)cc2)CC1`, the “% Inhibition @ 10 uM” value falls from 1.62% to -2.03%.

Compared with `C=CCSc1nc2sc3c(c2c(=O)n1Cc1ccccc1)CCC3`, `Cn1cnnc1SC/C=C/c1ccccc1` is lower in “% Inhibition @ 10 uM” value: 1.4% for the first, -8.01% for the second.

Going from `CCN(C(=O)COc1ccc(Br)cc1C)c1ccccc1` to `COc1cccc(CN2CCN(Cc3ccccc3Br)CC2)c1OC`, the “% Inhibition @ 10 uM” value rises from -1.92% to 13.4%.

Compared with `CCCC1Nc2c(C(=O)O)ccc([N+](=O)[O-])c2C2C=CCC12` (stereo not shown), `Cc1ccc(CCP(=O)(O)CCC(=O)O)cn1` is lower in “% Inhibition @ 10 uM” value: 6.7% for the first, 0.408% for the second.

Going from `COc1cc2nc(S)nc(NCC3CCCO3)c2cc1OC` (stereo not shown) to `COc1cc(-c2nnn(CC(=O)NC3CCCC3)n2)cc(OC)c1OC`, the “% Inhibition @ 10 uM” value rises from 0.708% to 2.99%.

First: COc1ccc(OCC(=O)Nc2cc(OC)c(Cl)cc2OC)cc1
Second: COc1cc(Cl)cc(OC)c1NC(=O)Cc1cccs1
The “% Inhibition @ 10 uM” value of the first is higher: -0.68% for the first, -16.2% for the second.

Compared with `CCN1C2=NCCN2c2ccccc21`, `O=C(/C=C/c1ccco1)NCc1ccccc1F` is higher in “% Inhibition @ 10 uM” value: -4.18% for the first, 1.88% for the second.

Compared with `CCCCCn1c(C)c2c(OCC)cccc(=O)c2c1C`, `Cc1ccc(CCN2CC(C(=O)NCCN(C)C)CC2=O)cc1` (stereo not shown) is higher in “% Inhibition @ 10 uM” value: -4.51% for the first, 4.81% for the second.

Going from `COc1ccc(/C=C2/SC(=S)N(CC(=O)O)C2=O)c(OC)c1` to `Cc1cc(NC(=O)c2cc(-c3ccc(F)cc3)no2)nn1CC(=O)NCc1ccco1`, the “% Inhibition @ 10 uM” value rises from 2.4% to 5.11%.

Going from `CC(NC=O)c1ccc(Br)cc1` (stereo not shown) to `CSc1ncc(C(=O)NCc2ccco2)c(C(F)(F)F)n1`, the “% Inhibition @ 10 uM” value falls from 14.3% to 4.17%.

Source: article PMC6919601, “Identification of Plasmodium dipeptidyl aminopeptidase allosteric inhibitors by high throughput screening” (PLoS ONE, 2019)
